Measurements taken from publication PMC4040926, “Re-examining how complexin inhibits neurotransmitter release” (eLife, 2014).

B2: synaptobrevin SNARE motif, rat synaptobrevin 2 […] (domain or fragment)
chain: not shown
notes: synaptobrevin 2, rat, […] (SNARE motif); Uniformly 2H,15N-labelled in the NMR experiment; also called Syb; 2H,15N-Syb; source: E. coli, purified

Legend:
[1] = target: B2; experiment: NMR titration; 1H-15N TROSY-HSQC of 2H,15N-labelled synaptobrevin SNARE motif free and incorporated into the SNARE complex assembled from the purified fragments (overnight, 4°C); spectra at 32°C; details: both partners purified
[2] = target: T1, SNAP-25 N-terminal SNARE motif, human SNAP-25 residues 11-82 (human, UniProt P60880 11-82); experiment: as above; details: both partners purified
T1 construct: SNAP-25, human, residues 11-82 (N-terminal SNARE motif); also called SNAP-25 (11-82); source: E. coli, purified
T1 sequence (P60880 11-82): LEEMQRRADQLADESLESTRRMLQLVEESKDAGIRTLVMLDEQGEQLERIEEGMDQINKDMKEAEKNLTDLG

B1: syntaxin-1 SNARE motif, rat syntaxin 1A […] (domain or fragment)
chain: not shown
notes: syntaxin 1A, rat, […] (SNARE motif); also called Syx; syntaxin-1([…]); source: E. coli, purified
- binding result [1]: binds

Binder: B2
- binding result [2]: binds
